# Test results as given in the supplement of paper PMC11417369.
# ± gives the standard deviation of the averaged measurements. The list shows a part of the results.
# Test system: PfAP2-I AP2 domain 3 (GST-tagged)
# Assay: gcPBM binding intensity (ln(normalized median fluorescence intensity)); higher = stronger DNA binding
# Method in brief: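 Binding of GST-tagged P. falciparum DNA-binding domains, expressed in E. coli and used at about 25 μg on average, was carried out for 1 h in 1× PBS containing 1% milk, 0.2 mg/ml BSA, 0.5% salmon testes DNA and 0.03% Triton X-100. The target was an Agilent 4 × 180k array of primer-extended double-stranded 36-bp intergenic genomic probes plus negative controls, read with Alexa488 anti-GST antibody at 488 nm. Binding intensity is the highest Masliner-normalised natural-log median intensity across replicate spots of either probe orientation.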
row,Sequence,gcPBM binding intensity (ln)
1,TCACATATATATTAATGTACATATATTTTTTATGTA [XGTACX_site5125],7.52 ± 0.38
2,GATATATCCTATGTTATTTTTATGGTGTAATTTAGT [XGTACX_negctrl_site112],7.88 ± 0.48
3,CAATGTTAACATATTACACACATATGTATATATAAT [CACACA_site8878],7.79 ± 0.53
4,GACAACTCTTTTCATACACACAAAAAAAAAAAAATA [CACACA_site2361],7.74 ± 0.25
5,TTTTTTTTATGTATCACACATAATTTTTTATTATGA [CACACA_site5534],7.63 ± 0.68
6,AGAAAGAAAATATATACACACAAAAAAAAATATATA [CACACA_site1412],7.69 ± 0.54
7,CATCCACAAATATGTACACACATATATAAATATGTA [CACACA_site7407],7.89 ± 0.44
8,ATAATAACAAGGCGCTGTACTGTACCGTTTTTCATA [XGTACX_site6135],7.87 ± 0.63
9,AACAGACAAAGACACACACACATACATACATACATA [CACACA_site6351],8.28 ± 0.55
10,TATCATATTTTTATATGTACATAACATAAAAAAAAA [XGTACX_site2152],7.71 ± 0.2
11,TGATTTGTGCCGATTTGTACACATTTATATATATAT [XGTACX_site2154],9.205 ± 0.049
12,ATTTTTTCATATTCTACACACGTGAACAAATGAGTC [CACACA_site5635],8.14 ± 0.64
13,TACATACATACATACACACACATATATATATATATA [CACACA_site1944],9.68 ± 0.49
14,TTTATATGGATTTTTTTTTAATATTTCTTTTAATTT [TGCATGCA_negctrl_site361],7.33 ± 0.42
15,ATAAAAAAAAAAAATACACACATATATTTATTTATA [CACACA_site6903],7.43 ± 0.47
16,ATATGCTATTTACTAGTGCAAAATATTTAAAATATG [GTGCAC_site9517],10.2 ± 0.42
17,TAAAAAAAAAAAAAAAGTACAAAAAAAATATTTTTT [XGTACX_site7941],7.75 ± 0.45
18,TTAATATAAGCAAATACACACACACCGATATATATA [CACACA_site9269],8.25 ± 0.72
19,GTTGCACAATGTTACACACACAATATAGATCGTTAA [CACACA_site6717],8.15 ± 0.43
20,GGCATGACTATCTGCACACATAAAAATAAGAAATAC [CACACA_site841],8.94 ± 0.19
21,GATTTATACAAATATGTACACACTAATTATATATTA [CACACA_site8045],8 ± 0.53
22,ATAAACAGAAAAAAAAAAAAAAAAAAAAAAAAAAAA [CACACA_negctrl_site143],8.11 ± 0.77
23,TTTTTTTTCTCACAAAAAATAATTAACAAAAAGGAA [XGTACX_negctrl_site154],7.88 ± 0.31
24,AAATAATATTTTACATGTACATAATAATTATTGGAT [XGTACX_site2783],7.77 ± 0.47
